According to PubChem BioAssay AID485294 (National Center for Advancing Translational Sciences (NCATS), 2010):
Hit rate of the full screen: of about 370,000 compounds, about 150 (0.041%) were called active. Inconclusive results, whose numbers are uncertain, are shown with a selection of clear calls. Calls come from the whole dose curve; as a rule, active = well fitted inhibition curve with a large enough effect; inconclusive = small, poorly fitted or top-dose-only effect; inactive = flat fitted curve, though single readings scatter. Potencies of inconclusive entries are left out as doubtful fits.

target: Beta-lactamase (Escherichia coli (strain K12)) (UniProt P00811); test: qHTS Inhibitors of AmpC Beta-Lactamase (assay with detergent); conditions: AmpC hydrolysis of nitrocefin, absorbance 480 nm, 0.01% Triton; activity change, negative = inhibition: at 114 µM (top of the series); note: nearly all actives have a fitted effect of over 25% in size;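 for activity change, negative = inhibition: 0% = no-compound wells and -100% = no-enzyme wells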
Sequence of UniProt P00811 (P00811 whole entry, looked up): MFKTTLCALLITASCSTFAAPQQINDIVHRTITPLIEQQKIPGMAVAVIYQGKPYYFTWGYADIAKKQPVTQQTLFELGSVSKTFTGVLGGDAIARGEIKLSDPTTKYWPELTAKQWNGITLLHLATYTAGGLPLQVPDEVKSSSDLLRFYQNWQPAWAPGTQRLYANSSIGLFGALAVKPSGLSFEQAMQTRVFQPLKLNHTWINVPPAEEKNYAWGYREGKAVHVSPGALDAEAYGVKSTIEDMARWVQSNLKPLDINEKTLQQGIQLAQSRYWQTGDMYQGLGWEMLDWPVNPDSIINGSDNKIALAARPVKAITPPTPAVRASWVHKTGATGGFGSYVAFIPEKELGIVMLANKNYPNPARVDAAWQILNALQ
Procedure, shortened: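 AmpC (5.3 nM in the dispensed reagent) in 20 mM phosphate pH 7.0 with 0.01% (detergent screen) or 0.0001% Triton X-100 was preincubated with compounds for 15 min at room temperature. Nitrocefin was then added from an 800 uM solution, and hydrolysis was followed at 480 nm.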
Potency is the fitted concentration of half-maximal effect; tags give direction and shape of the fitted curve.

| SMILES | activity change, negative = inhibition | Potency |
| --- | --- | --- |
| COc1ccc(-c2cc(C(=O)Nc3c(Cl)cc(Cl)cc3Cl)c3ccccc3n2)cc1OC | inactive: 0.38% |  |
| CC(COc1ccccc1)NC(C)C(O)c1ccc(O)cc1 (centres undefined) | inactive: -13.2% |  |
| CCN(Cc1cc2ccccc2[nH]c1=O)C(=O)C(C)C | inactive: -10.6% |  |
| CCOC(=O)c1c(/N=C/c2c(O)n(-c3cccc(C)c3)c(=O)[nH]c2=O)sc2c1CCCC2 |  | inconclusive [inhibitor, full curve] |
| O=C(c1ccco1)N1CCN(Cc2cc(=O)c(OCc3ccccc3Cl)co2)CC1 |  | inconclusive [inhibitor, full curve, poor fit] |
| NC(=O)C1CCN(C(=O)CC2(CC(=O)O)CCCC2)CC1 |  | inconclusive [inhibitor, full curve] |
| CCN(CC(=O)Nc1c(F)cccc1F)C(=O)c1ccc(Sc2nncn2C)c([N+](=O)[O-])c1 |  | inconclusive [inhibitor, full curve, poor fit] |
| Cc1cc(OCC(=O)NNC(=O)c2cnccn2)cc(C)c1Cl | inactive: -0.229% |  |
| O=C(COc1ccc(Cl)cc1Br)NCC(c1ccco1)N1CCCC1 (centres undefined) |  | inconclusive [inhibitor, single point] |
| Cc1cc(C)cc(OCC(=O)OC/C(O)=C(\C#N)c2nc3ccccc3[nH]2)c1 |  | inconclusive [inhibitor, single point] |
| COc1ccc(CCN2C(=O)N(c3ccc(F)cc3)C(=O)C2CC(=O)Nc2ccccc2)cc1 (centres undefined) | inactive: -8.05% |  |
| CC1CCCN(C(=S)SCC(=O)O)C1 (centres undefined) |  | inconclusive [inhibitor, full curve, poor fit] |
| COC(=O)C1=C(C)N(Cc2ccco2)C(=O)N[C@@H]1c1cccc(C(F)(F)F)c1 |  | inconclusive [inhibitor, partial curve, poor fit] |
| O=C(c1ccccc1)N1CCN(CC#Cc2ccccc2)CC1 |  | inconclusive [inhibitor, full curve, poor fit] |
| Cc1ccc(S(=O)(=O)N2CC(=NN=C(N)N)C2)cc1 | inactive: -0.414% |  |
| O=C(NNC(=O)c1cccnc1)Nc1ccc(Cl)c(Cl)c1 | inactive: -7.78% |  |
| CC(C(=O)Nc1ccccc1)N1CCN(c2ccccn2)CC1 (centres undefined) |  | inconclusive [inhibitor, full curve, poor fit] |
| O=C(CSC1=NS(=O)(=O)c2cc(F)ccc2N1)NCCc1ccccc1 |  | inconclusive [inhibitor, full curve, poor fit] |
| CCOc1ccc(S(=O)(=O)N(C)CC(=O)NCCN2CCOCC2)cc1 |  | inconclusive [inhibitor, full curve] |
| Cc1cc(/C([O-])=C(/C(=S)Nc2ccc(F)cc2)[n+]2ccccc2)c(C)n1Cc1ccccc1Cl |  | inconclusive [inhibitor, partial curve, poor fit] |
| Cc1cc(F)ccc1S(=O)(=O)Nc1ccccc1C(=O)NC1CCN(Cc2ccccc2)CC1 |  | inconclusive [inhibitor, single point] |
| CC1(C)CC(=O)C=C(Nc2ccccn2)C1 |  | inconclusive [inhibitor, partial curve, poor fit] |

| SMILES | activity change, negative = inhibition | Potency |
| --- | --- | --- |
| COc1ccccc1OCC(=O)Nc1ccccn1 |  | inconclusive [inhibitor, full curve, poor fit] |
| Cc1ccc(C(C)C)cc1OCCOCCN1CCCC1 |  | inconclusive [inhibitor, partial curve, poor fit] |
| Cc1nnc(N2CCC(C(=O)NC(C)C)CC2)c2nn(-c3ccc(Cl)cc3)c(C)c12 | inactive: 7.03% |  |
| CC(C)COC(=O)C(N)C(C(=O)OCC(C)C)c1ccccc1 (centres undefined) |  | inconclusive [inhibitor, full curve, poor fit] |
| CCOC(=O)C1(Cc2cccc(OC)c2)CCN(Cc2ccc(OC)c(O)c2)CC1 | inactive: 0.069% |  |
| COc1ccc(CN2CC(C(=O)NCCc3ccc(C)cc3)CC2=O)cc1 (centres undefined) |  | inconclusive [inhibitor, single point] |
| O=C(c1ccc2c3n(nc2c1)-c1ccc(Cl)cc1CO3)N1CCOCC1 | inactive: -2.15% |  |
| CCSc1nnc(NC(=O)NCC(F)(F)F)s1 |  | inconclusive [inhibitor, full curve, poor fit] |
| COc1cc(-c2nnc(SCC(=O)N3CCCC3)o2)cc(OC)c1OC |  | inconclusive [inhibitor, full curve, poor fit] |
| c1ccc2c(Oc3ccc4c(c3)OCO4)nncc2c1 |  | inconclusive [inhibitor, full curve] |
| CCOC(CNC(=O)CN1C(=O)COc2ccc(S(=O)(=O)N3CCCC3)cc21)OCC |  | inconclusive [inhibitor, full curve, poor fit] |
| Cc1cccc(C)c1NC(=O)c1cc(S(=O)(=O)N2CCOCC2)cn1C |  | inconclusive [inhibitor, partial curve, poor fit] |
| Cc1cccnc1NC(=O)CN1C(=O)c2ccccc2S1(=O)=O |  | inconclusive [inhibitor, full curve, poor fit] |
| O=C(c1cc(=O)[nH]c2ccccc12)N(Cc1nnc(-c2ccccc2Cl)o1)C1CC1 | inactive: -15.8% |  |
| COc1ccc(Br)cc1/C=N/N1CCN(Cc2ccccc2)CC1 | inactive: 4.4% |  |
| CCOC(=O)N1CCN(S(=O)(=O)N2CCCC(C(=O)NCCCN3CC(C)CC(C)C3)C2)CC1 (centres undefined) |  | inconclusive [inhibitor, partial curve, poor fit] |
| Clc1cc(NCc2ccccc2)ncn1 |  | inconclusive [inhibitor, single point] |
| CSc1nc(=O)n(-c2ccccc2)c(C)c1C(C)=O |  | inconclusive [inhibitor, full curve] |
| CSc1nc(N)c2c3c(sc2n1)COC(C(C)C)C3 (centres undefined) |  | inconclusive [inhibitor, partial curve, poor fit] |
| O=C(CCn1c(=O)c2cccn2c2ccc(F)cc21)NCc1ccccc1F | inactive: 0.66% |  |
| Cc1nn(-c2ccccc2)c(Cl)c1/C=N/NC(=O)c1ccnn1C | inactive: 1.24% |  |
| CS(=O)(=O)N1CCN(c2ccc(C(=O)NC34CC5CC(CC(C5)C3)C4)cc2[N+](=O)[O-])CC1 |  | inconclusive [inhibitor, partial curve, poor fit] |
